Experimental findings from article PMC4336329 (PLoS ONE, 2015) are described below.

About 14,000 (4.5%) of roughly 310,000 compounds showed an effect of 50% or more. The effect is printed as a negative number. The list shows a part of the results.
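Further: peak tail current of the secondary pulse compared with the same well before compound.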

human ether-à-go-go-related gene (hERG) potassium channel, sequence (Q12809 whole entry, looked up): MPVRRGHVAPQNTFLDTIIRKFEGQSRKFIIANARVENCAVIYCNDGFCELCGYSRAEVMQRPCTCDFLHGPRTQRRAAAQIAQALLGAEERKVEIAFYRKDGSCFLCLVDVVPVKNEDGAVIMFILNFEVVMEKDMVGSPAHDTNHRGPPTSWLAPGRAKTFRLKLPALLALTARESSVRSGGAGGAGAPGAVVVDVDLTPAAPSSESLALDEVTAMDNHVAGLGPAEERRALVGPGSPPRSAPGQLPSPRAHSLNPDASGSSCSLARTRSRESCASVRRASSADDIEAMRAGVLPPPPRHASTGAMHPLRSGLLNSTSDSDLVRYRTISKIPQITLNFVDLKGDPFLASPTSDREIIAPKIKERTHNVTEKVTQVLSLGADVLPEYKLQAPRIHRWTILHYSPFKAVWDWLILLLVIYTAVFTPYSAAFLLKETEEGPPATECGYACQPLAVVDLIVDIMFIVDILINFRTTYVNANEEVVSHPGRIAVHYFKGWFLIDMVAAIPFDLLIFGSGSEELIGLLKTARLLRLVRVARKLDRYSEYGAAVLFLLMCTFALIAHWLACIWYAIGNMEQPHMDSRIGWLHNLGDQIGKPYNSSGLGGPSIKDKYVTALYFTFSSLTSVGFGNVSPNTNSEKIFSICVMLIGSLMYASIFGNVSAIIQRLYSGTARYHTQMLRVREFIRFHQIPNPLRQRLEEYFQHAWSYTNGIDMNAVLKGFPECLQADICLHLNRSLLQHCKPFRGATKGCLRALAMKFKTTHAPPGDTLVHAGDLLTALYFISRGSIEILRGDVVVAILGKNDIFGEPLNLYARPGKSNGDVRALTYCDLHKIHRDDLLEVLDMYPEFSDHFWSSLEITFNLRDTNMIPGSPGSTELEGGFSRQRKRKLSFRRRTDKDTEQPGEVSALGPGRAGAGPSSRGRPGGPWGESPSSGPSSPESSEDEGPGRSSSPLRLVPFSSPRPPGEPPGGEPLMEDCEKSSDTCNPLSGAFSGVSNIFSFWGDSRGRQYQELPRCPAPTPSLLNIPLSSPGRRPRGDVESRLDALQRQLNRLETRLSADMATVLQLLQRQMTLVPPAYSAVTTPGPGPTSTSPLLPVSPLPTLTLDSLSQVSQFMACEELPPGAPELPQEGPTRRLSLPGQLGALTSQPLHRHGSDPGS

The test concerns the target human ether-à-go-go-related gene (hERG) potassium channel (human, UniProt Q12809). Briefly: primary screen, population patch clamp on CHO cells stably expressing hERG.
Turning to `COc1nc(NC(=O)c2ccc(F)cc2)nc(OC)c1-c1ccccc1`, the “hERG current change (%, negative = inhibition) at 10uM” value stood at 9.34%.

Consider `CCOC(=O)C1(CCCCCCOc2ccc(Cl)cc2)CO1` (stereo not drawn), for which the “hERG current change (%, negative = inhibition) at 10uM” value came out at 4.13%.

For the compound `O=C(NCC(=O)N(c1ccc(F)cc1)C(C(=O)NC1CCCC1)c1ccncc1)c1ccco1` (stereo not drawn), the “hERG current change (%, negative = inhibition) at 10uM” value was 10.8%.

`CCn1cc([N+](=O)[O-])c(C(=O)Nc2cc(C)on2)n1`: the “hERG current change (%, negative = inhibition) at 10uM” value amounted to 0.761%.

Take `CCOC(=O)C(CCCCCCP(=O)(c1ccccc1)c1ccccc1)NC(C)=O` (stereo not drawn): the “hERG current change (%, negative = inhibition) at 10uM” value was -0.737%.

Turning to `Cc1ccc(CSc2nnc(NC(=O)C3COc4ccccc4O3)s2)cc1` (stereo not drawn), the “hERG current change (%, negative = inhibition) at 10uM” value amounted to 23.5%.

For `C1=C(c2ccccc2)Nc2ccccc2N=C1c1ccccc1`, the “hERG current change (%, negative = inhibition) at 10uM” value came out at 0.187%.

Turning to `[O-]/C(=C(\C(=S)Nc1cccc2ccccc12)[n+]1ccccc1)c1ccc(Cl)s1`, the “hERG current change (%, negative = inhibition) at 10uM” value was found to be 5.54%.

As for `O=C(CSc1nccn1-c1ccccc1)c1ccc(Br)cc1`, the “hERG current change (%, negative = inhibition) at 10uM” value is on record as 7.33%.

As to `Cc1cc2oc3c(c(=O)c2cc1C)C(c1ccc(C(C)C)cc1)N(CCCN1CCOCC1)C3=O` (stereo not drawn), the “hERG current change (%, negative = inhibition) at 10uM” value was -10.5%.

For the compound `CCc1ccc(N2CC(C(=O)N/N=C/c3ccccc3)CC2=O)cc1` (stereo not drawn), the “hERG current change (%, negative = inhibition) at 10uM” value is reported as -14.8%.

In the case of `O=C(NCc1ccc2c(c1)OCO2)NC1CCCCC1`, the “hERG current change (%, negative = inhibition) at 10uM” value was 19.4%.

Turning to `COc1cccc(C(=O)Nc2nc(-c3ccncc3)cs2)c1`, the “hERG current change (%, negative = inhibition) at 10uM” value is listed as 6.29%.

With `COc1ccc(C2/C(=C(/O)c3ccc(C)cc3)C(=O)C(=O)N2c2ccccn2)cc1` (stereo not drawn), the “hERG current change (%, negative = inhibition) at 10uM” value turned out to be 15.1%.

For `Cc1c(NC(=O)COc2ncnc3c(Cl)cc(Cl)cc23)c(=O)n(-c2ccccc2)n1C`, the “hERG current change (%, negative = inhibition) at 10uM” value was 7.23%.

Turning to `Cc1ccc(C(=O)N/N=C/c2ccc(-c3cccc(C(F)(F)F)c3)o2)cn1`, the “hERG current change (%, negative = inhibition) at 10uM” value was 1.62%.

`CC(OC(=O)CNC(=O)c1cccc(F)c1)C(=O)NC1CCCCC1C` (stereo not drawn): the “hERG current change (%, negative = inhibition) at 10uM” value was determined as 8.98%.

Regarding `CN(C)c1ccc(CNC(=O)CCS(=O)(=O)c2ccc3c(c2)n(C)c(=O)c(=O)n3C)cc1`, the “hERG current change (%, negative = inhibition) at 10uM” value came to 1.99%.

Consider `COc1ccccc1N1CCN(S(=O)(=O)CCNC(=O)c2cccc(F)c2)CC1`, for which the “hERG current change (%, negative = inhibition) at 10uM” value was -24.7%.

For `Cn1cccc1/C=C(/C#N)C(N)=S`, the “hERG current change (%, negative = inhibition) at 10uM” value was determined as 3.79%.

Regarding `Cn1ccnc1SCC(=O)Nc1ccc2c(c1)OC(F)(F)O2`, the “hERG current change (%, negative = inhibition) at 10uM” value was 6.66%.

With `CCc1ccccc1N/C(=N\S(=O)(=O)c1ccccc1)C(F)(F)F`, the “hERG current change (%, negative = inhibition) at 10uM” value is recorded as 4.15%.

For the compound `C=CCn1c(CC(=O)Nc2cccc(OC)c2)nnc1SCC(=O)NC1CCCCC1`, the “hERG current change (%, negative = inhibition) at 10uM” value is -3.45%.

In the case of `Clc1ccccc1CN1CCN(c2cccc3[nH]ccc23)CC1`, the “hERG current change (%, negative = inhibition) at 10uM” value is listed as 3.09%.

On to `CC(C)CC(C(=O)NC1CCCC1)N(Cc1ccc2c(c1)OCO2)C(=O)c1snc(C(N)=O)c1N` (stereo not drawn), for which the “hERG current change (%, negative = inhibition) at 10uM” value was -20.4%.

On to `Cc1cc(NC(=O)CCCC(=O)NCc2ccccc2)no1`, for which the “hERG current change (%, negative = inhibition) at 10uM” value is given as 7.97%.

`Cl.Oc1ccc2c3c1O[C@H]1c4[nH]c5ccccc5c4C[C@@]4(O)[C@@H](C2)N(CC2CC2)CC[C@]314`: the “hERG current change (%, negative = inhibition) at 10uM” value is given as -63%.

As for `Cl.Nc1nc(N2CCN(C/C=C/c3ccccc3)CC2)nc2ccccc12`, the “hERG current change (%, negative = inhibition) at 10uM” value is -67.7%.

Regarding `CC1(C)Cc2nc(-c3ccccc3)n3cnnc3c2CO1`, the “hERG current change (%, negative = inhibition) at 10uM” value was 2.47%.

Regarding `Cc1ccc(-c2nc3ccccc3c(=O)n2-c2cccc(O)c2)cc1`, the “hERG current change (%, negative = inhibition) at 10uM” value stood at 13.9%.

On to `Cc1cnc(NC(=O)CCNC(=O)c2ccccc2Cl)s1`, for which the “hERG current change (%, negative = inhibition) at 10uM” value came out at 5.74%.

Turning to `COc1cc(OC)cc(C(=O)OCC(=O)N2CCCC2)c1`, the “hERG current change (%, negative = inhibition) at 10uM” value was 12.2%.

Regarding `CC(=O)c1ccc(N2CCN(C(=S)Nc3ccccc3C(F)(F)F)CC2)cc1`, the “hERG current change (%, negative = inhibition) at 10uM” value stood at 18.9%.

Consider `Nc1nnnn1CC(=O)N/N=C/c1cccs1`, for which the “hERG current change (%, negative = inhibition) at 10uM” value turned out to be 19.6%.

With `COC(=O)c1ccc(-c2nc3ccccc3[nH]2)cc1`, the “hERG current change (%, negative = inhibition) at 10uM” value was 17.8%.

Turning to `CCN1CCN(C(=O)CN(Cc2ccccc2)S(C)(=O)=O)CC1`, the “hERG current change (%, negative = inhibition) at 10uM” value was found to be 0.141%.

In the case of `O=C(CN1CCOCC1)N(c1ccccc1)c1ccc2ccccc2c1`, the “hERG current change (%, negative = inhibition) at 10uM” value is -16.2%.

Consider `CC1(c2ccccc2)NC(=O)N(CC#N)C1=O` (stereo not drawn), for which the “hERG current change (%, negative = inhibition) at 10uM” value is recorded as 11.7%.

`CC(NC(=O)Cn1c(=O)[nH]c2ccsc2c1=O)C12CC3CC(CC(C3)C1)C2` (stereo not drawn): the “hERG current change (%, negative = inhibition) at 10uM” value is recorded as 0.121%.

Consider `COc1cc(CCC(=O)O)on1`, for which the “hERG current change (%, negative = inhibition) at 10uM” value amounted to 18.4%.

As for `Cn1c(N)c(C(=O)COC(=O)C2(c3ccccc3F)CCCC2)c(=O)n(C)c1=O`, the “hERG current change (%, negative = inhibition) at 10uM” value is recorded as -29.9%.

Turning to `O=C(c1ccc(F)cc1)N(Cc1ccccc1)C1CCS(=O)(=O)C1` (stereo not drawn), the “hERG current change (%, negative = inhibition) at 10uM” value is recorded as -1.55%.

In the case of `Cc1cc(CN2CCC(n3nccc3NC(=O)c3ccccc3C)CC2)n[nH]1`, the “hERG current change (%, negative = inhibition) at 10uM” value is listed as -38%.

As to `CC(C)NC(=O)C(=O)NC1CCCCCC1`, the “hERG current change (%, negative = inhibition) at 10uM” value is recorded as -3.3%.

As for `COc1cccc(NC(=S)NC2CC3CCCC(C2)N3CC(C)C)c1` (stereo not drawn), the “hERG current change (%, negative = inhibition) at 10uM” value was -24.8%.

Turning to `Cc1cccc2sc(NC(=O)CN3C(=O)c4ccccc4C3=O)nc12`, the “hERG current change (%, negative = inhibition) at 10uM” value came out at 11.3%.

In the case of `CCCCCOC(=O)C1=C(C)NC(=O)NC1c1ccc2c(c1)OCO2` (stereo not drawn), the “hERG current change (%, negative = inhibition) at 10uM” value stood at 6.41%.

Regarding `O=C(NCCNc1ccccc1[N+](=O)[O-])c1ccccc1F`, the “hERG current change (%, negative = inhibition) at 10uM” value stood at 4.11%.

Turning to `Cc1cc2nn(-c3ccc(Cl)cc3)nc2cc1N`, the “hERG current change (%, negative = inhibition) at 10uM” value is 5.43%.

For the compound `O=S(=O)(Cc1ccc(Cl)cc1)N1CCCCCC1`, the “hERG current change (%, negative = inhibition) at 10uM” value stood at 6.95%.

For `COc1ccc(NC(=O)COC(=O)COc2ccc(Br)cc2)cc1`, the “hERG current change (%, negative = inhibition) at 10uM” value turned out to be 41.8%.

Turning to `CC(C)Oc1ccc(C(CC(=O)O)NC(=O)Cc2ccc(Cl)cc2)cc1` (stereo not drawn), the “hERG current change (%, negative = inhibition) at 10uM” value was 24.8%.

On to `N#Cc1c(SCC(N)=O)nsc1SCc1ccccc1Cl`, for which the “hERG current change (%, negative = inhibition) at 10uM” value stood at 9.65%.

As for `CCCCn1c(=O)c(F)cn(Cc2ccc(OC)c([N+](=O)[O-])c2)c1=O`, the “hERG current change (%, negative = inhibition) at 10uM” value is listed as -25.2%.

For the compound `COC(=O)c1ccc(N2CCN(C)CC2)c(NC(=O)COc2ccccc2Cl)c1`, the “hERG current change (%, negative = inhibition) at 10uM” value came to 12.7%.

Regarding `CC(=O)NC(C(=O)c1ccccc1)N1CCCCC1` (stereo not drawn), the “hERG current change (%, negative = inhibition) at 10uM” value is on record as 6.15%.

On to `CC(=O)c1csc(-c2cccc(-c3nc4ccc(Cl)cn4c3NC3CCCCC3)c2)c1.O=C(O)C(F)(F)F`, for which the “hERG current change (%, negative = inhibition) at 10uM” value was 22.9%.
